From PubChem BioAssay AID1508623 (National Center for Advancing Translational Sciences (NCATS), 2021)
Among all 48,000 compounds or so, about 450 (0.94%) were called active. Inconclusive results, whose numbers are uncertain, are shown with a selection of clear calls. Calls come from the whole dose curve; as a rule, active = well fitted inhibition curve with a large enough effect; inconclusive = small, poorly fitted or top-dose-only effect; inactive = no such curve, though single readings can be large or run the other way. A potency beside an inconclusive call is a rough fit, not a confirmed value.

Assay: Primary qHTS for Identification of Small Molecule Inhibitors of Huntingtin Promoter Activity; note: nearly all actives have a fitted effect of over 50% in size
Details: HEK293 HTT promoter firefly luciferase reporter (activity 0% = vehicle and -100% = no light), 24 h; activity change, negative = inhibition: at 57.5 µM (top of the series)
Outline: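 HEK293 cells carrying firefly luciferase reporters were seeded at 2,500 per well in Opti-MEM and cultured for 24 h. They were then treated with compounds at up to 57.5 uM final for 24 h at 37 degrees C before Dual-Glo luminescence readout.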
Potency is the fitted concentration of half-maximal effect; tags give direction and shape of the fitted curve.

Compound | activity change, negative = inhibition | Potency
O=c1[nH]sc2cc(Cl)ccc12 | inactive: -36% | 
COc1ccc(C)cc1NC(=O)C(=O)NCC(c1cccnc1)N1CCN(c2ccccc2F)CC1 (stereo unspecified) |  | inconclusive: 28.2 µM [inhibitor, single point]
CCc1cccc(NC(=O)Nc2cn(C)c(=O)c3ccccc23)c1 |  | inconclusive: 35.5 µM [inhibitor, partial curve, poor fit]
COc1ccc(-c2noc(CCC(=O)Nc3cccc(C)c3C)n2)cc1OC |  | inconclusive: 20 µM [inhibitor, partial curve, poor fit]
CCc1c(C)nc2nncn2c1Nc1ccc(Cl)cc1 |  | inconclusive: 25.1 µM [inhibitor, partial curve]
CCOc1ccccc1NS(=O)(=O)c1ccc2c(c1)CC(C)N2C(=O)C1CC1 (stereo unspecified) |  | inconclusive: 20 µM [inhibitor, partial curve, poor fit]
O=C(NCCc1csc(-c2ccc(F)cc2)n1)c1ccco1 | inactive: -11.7% | 
COC(=O)c1c(SC)nc2ccccc2c1OCc1ccccc1Cl |  | inconclusive: 31.6 µM [inhibitor, partial curve, poor fit]
CCOc1ccc(CN2CCc3nc(N4CCN(c5ncccn5)CC4)ncc3C2)cc1OC |  | inconclusive: 25.1 µM [inhibitor, partial curve, poor fit]
Cc1ccc(-c2c(C(=O)N3CCN(c4cccc(C)c4)C(C)C3)oc(=O)c3ccccc23)cc1 (stereo unspecified) |  | inconclusive: 28.2 µM [inhibitor, single point]
COC(=O)C1=C(C)N=C2SCCC(=O)N2C1c1ccc(OCc2ccccc2)c(OC)c1 (stereo unspecified) | inactive: -18.1% | 
CCOC(=O)c1c(C)[nH]c(C)c1S(=O)(=O)N(C)CC(=O)N1CCN(c2ccc(Cl)cc2)CC1 |  | inconclusive: 28.2 µM [inhibitor, single point]
COc1cc2c(Oc3ccc(-c4cnc(Nc5ccc(F)cc5)n(C)c4=O)cc3F)ccnc2cc1OCCCN1CCOCC1 |  | inconclusive: 19.3 µM [inhibitor, partial curve]
CCOc1ccc(N2C(=O)CS(=O)(=O)C23C(=O)N(Cc2cccc(Cl)c2)c2ccccc23)cc1 (stereo unspecified) |  | inconclusive: 17.8 µM [inhibitor, single point]
CC(C)(C)OC(=O)N1CCC(c2c(C(=O)Nc3ccc4c(c3)OCCO4)cnn2-c2ccc(F)cc2F)CC1 |  | inconclusive: 31.6 µM [inhibitor, partial curve]
O=C(Nc1cccc(OCc2cc(=O)n3ccccc3n2)c1)c1ccccc1Br |  | inconclusive: 3.16 µM [inhibitor, single point]
Cc1ccc(-c2nc3c(c(SCC(=O)N(C)c4ccccc4)n2)Cc2c(CO)cnc(C)c2O3)cc1 |  | inconclusive: 12.6 µM [inhibitor, partial curve, poor fit]
COc1ccccc1CCNC(=O)C(=O)NCC(c1ccco1)S(=O)(=O)c1ccc(F)cc1 (stereo unspecified) |  | inconclusive: 39.8 µM [inhibitor, single point]

Compound | activity change, negative = inhibition | Potency
Cn1c2ccccc2c2c(C(=O)N3CCN(c4cccc(Cl)c4)CC3)cn(C3CCCCC3)c(=O)c21 |  | inconclusive: 31.6 µM [inhibitor, single point]
COc1cccc(N2CCN(C(=O)C3CCCN(S(=O)(=O)c4ccc5c(c4)oc(=O)n5C)C3)CC2)c1 (stereo unspecified) |  | inconclusive: 8.91 µM [inhibitor, full curve, poor fit]
COc1ccc(-n2c(/C=C/c3cccc(C(F)(F)F)c3)nc3ccccc3c2=O)cc1Cl |  | inconclusive: 39.8 µM [inhibitor, single point]
Cc1ccc(S(=O)(=O)N2CCN(Cc3cc(Br)ccc3O)CC2)cc1 |  | inconclusive: 28.2 µM [inhibitor, partial curve, poor fit]
Cn1cc(S(=O)(=O)N2CCCCCC2)cc1C(=O)N1CCN(c2cccc(C(F)(F)F)c2)CC1 |  | inconclusive: 25.1 µM [inhibitor, single point]
O=C1CSC2(C(=O)N(Cc3ccccc3)c3ccccc32)N1c1cccc(F)c1 (stereo unspecified) |  | inconclusive: 35.5 µM [inhibitor, partial curve, poor fit]
O=S(=O)(c1ccc(Cl)cc1)c1nc(-c2cccc(Br)c2)oc1NCc1ccccc1 |  | inconclusive: 3.55 µM [inhibitor, single point]
Cc1cc(C)c(NC(=O)CSc2nc3ccccc3c3nc(CCn4cncc4C)nn23)c(C)c1 |  | inconclusive: 39.8 µM [inhibitor, partial curve, poor fit]
COc1ccc(CCNC(=O)CSc2nc3nc(C)c(Cc4ccc(C)cc4)c(C)n3n2)cc1OC |  | inconclusive: 14.1 µM [inhibitor, partial curve, poor fit]
Cc1ccc(C)c(OCCn2c(C3CC(=O)N(Cc4ccc(F)cc4)C3)nc3ccccc32)c1 (stereo unspecified) |  | inconclusive: 28.2 µM [inhibitor, single point]
CCOc1ccc2nc(N3CCN(C(=O)c4ccc(S(=O)(=O)CC)cc4)CC3)sc2c1 |  | inconclusive: 8.91 µM [inhibitor, full curve, poor fit]
Cc1ccc(/C=C/C(=O)Nc2nc(-c3cccs3)ns2)cc1 | inactive: -7.67% | 
C=C(CC)C(=O)c1ccc(OCC(=O)O)c(Cl)c1Cl |  | inconclusive: 39.8 µM [inhibitor, single point]
Cc1ccc(N(CC(=O)Nc2cccc(Cl)c2C)S(=O)(=O)c2c(C)noc2C)cc1 |  | inconclusive: 25.1 µM [inhibitor, single point]
O=S(=O)(NCc1ccc(F)cc1)c1ccc2[nH]c3c(c2c1)CCCCC3 |  | inconclusive: 28.2 µM [inhibitor, partial curve, poor fit]
Cc1cccc(Nc2nc(Nc3cccc(C)c3)nc(N3CCOCC3)n2)c1 |  | inconclusive: 14.1 µM [inhibitor, partial curve]
Cc1sc(C2C(C#N)=C(N)N(c3cccc(Cl)c3)C3=C2C(=O)CCC3)cc1CN1CCOCC1 (stereo unspecified) | inactive: -8.58% | 
Cc1ccc(CNC(=O)c2cc(S(=O)(=O)N3CCCC(C)C3)cn2C)cc1 (stereo unspecified) |  | inconclusive: 35.5 µM [inhibitor, partial curve, poor fit]
